# Data reported in the supplement of paper PMC4604168 (melanoma cell lines).
# The other results are listed elsewhere or left out. Repeats are few or missing, and single values can be far off.
# Key:
# Experiment in all cases: cell count relative to DMSO control; melanoma cells; higher = more viable cells
# Settings in all cases: library dose: standard library concentration; 72 h
# G361 = tested on: G361
# IPC-298 = tested on: IPC-298
# IST-MEL1 = tested on: IST-MEL1
# LB2518-MEL = tested on: LB2518-MEL
# LOXIMVI = tested on: LOXIMVI
# MEL-HO = tested on: MEL-HO
# MZ2-MEL = tested on: MZ2-MEL
# MeWo = tested on: MeWo
# RPMI7951 = tested on: RPMI7951
# RVH-421 = tested on: RVH-421
# SkMel28 = tested on: SkMel28
# SkMel2 = tested on: SkMel2
# SkMel30 = tested on: SkMel30
# SkMel5 = tested on: SkMel5
# UACC257 = tested on: UACC257
# UACC62 = tested on: UACC62
# WM115 = tested on: WM115
# WM1716 = tested on: WM1716
# WM1745 = tested on: WM1745
# WM3526 = tested on: WM3526
# 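Also: cells treated in 1,536-well plates, then fixed and DAPI-stained, with nuclei counted from automated high-throughput microscope images.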
Compound,cell count (G361) [%],cell count (IPC-298) [%],cell count (IST-MEL1) [%],cell count (LB2518-MEL) [%],cell count (LOXIMVI) [%],cell count (MEL-HO) [%],cell count (MZ2-MEL) [%],cell count (MeWo) [%],cell count (RPMI7951) [%],cell count (RVH-421) [%],cell count (SkMel28) [%],cell count (SkMel2) [%],cell count (SkMel30) [%],cell count (SkMel5) [%],cell count (UACC257) [%],cell count (UACC62) [%],cell count (WM115) [%],cell count (WM1716) [%],cell count (WM1745) [%],cell count (WM3526) [%]
"O=C(Nc1cc(C(F)(F)F)cc(C(F)(F)F)c1)c1cc(Cl)ccc1O + CO[C@H]1C[C@@H]2CC[C@@H](C)[C@@](O)(O2)C(=O)C(=O)N2CCCC[C@H]2C(=O)O[C@H]([C@H](C)C[C@@H]2CC[C@@H](OCCO)[C@H](OC)C2)CC(=O)[C@H](C)/C=C(\C)[C@@H](O)[C@@H](OC)C(=O)[C@H](C)C[C@H](C)/C=C/C=C/C=C/1C [everolimus] (first compound 0.08 µM, partner dose 0.1 µM)",68.9,76.8,73.3,75.3,98,78,85.7,70.5,69.6,74.2,56.6,65.2,76.5,56.3,93.6,73.6,64.9,69.6,81.1,60.9
"O=C(O)c1ccc2c(c1)nc(Nc1cccc(Cl)c1)c1ccncc12 + OCCn1cc(-c2cnc3nnn(Cc4ccc5ncccc5c4)c3n2)cn1 [PF04217903] (first compound 2 µM, partner dose 5 µM)",66.1,73.3,67.2,98.6,40.8,56.8,69,84.1,64.7,88.7,81.1,73.9,77.5,84.8,101,61.5,109,78.3,79.9,58.4
"O=C(Nc1cc(C(F)(F)F)cc(C(F)(F)F)c1)c1cc(Cl)ccc1O + CN(C)S(=O)(=O)c1ccc2c(c1)/C(=C/c1cc3c([nH]1)CCCC3)C(=O)N2 [SU6656] (first compound 0.08 µM, partner dose 2 µM)",53.7,71.9,60,90.9,87.3,69.8,96.6,72.6,191,83.9,64.5,79,98.9,95.5,91.5,78.2,56.2,62.8,71.8,73.8
"O=C(O)c1ccc2c(c1)nc(Nc1cccc(Cl)c1)c1ccncc12 + COCC[n+]1c2c(n(Cc3cnccn3)c1C)C(=O)c1ccccc1C2=O [YM155] (first compound 2 µM, partner dose 0.002 µM)",63.7,46.2,46.3,35.9,81.5,65.5,29.1,66.2,36.3,80.8,48.1,35.3,82,40.5,30.3,73.5,71.4,77.6,76.4,50.7
"O=C(O)c1ccc2c(c1)nc(Nc1cccc(Cl)c1)c1ccncc12 + Nc1ccn([C@@H]2O[C@H](CO)[C@@H](O)C2(F)F)c(=O)n1 [gemcitabine] (first compound 2 µM, partner dose 0.002 µM)",35.3,36.6,32.3,48.6,57.7,35.1,58.1,36.4,41.5,30.6,64.9,75.8,77.5,56,103,72.5,64.7,52.8,41,58.5
"O=C(Nc1cc(C(F)(F)F)cc(C(F)(F)F)c1)c1cc(Cl)ccc1O + O=C1NC(=O)/C(=C/c2ccc(-c3ccc(F)cc3O)o2)S1 [AS252424] (first compound 0.08 µM, partner dose 5 µM)",80.4,87.5,82.1,94.3,87.6,74.4,103,88.5,116,88.9,95.4,96.9,86.1,82.5,85.9,107,77.5,117,–,92.3
"O=C(O)c1ccc2c(c1)nc(Nc1cccc(Cl)c1)c1ccncc12 + O=C(Nc1ccccc1)c1cc([N+](=O)[O-])ccc1Cl [GW9662] (first compound 2 µM, partner dose 10 µM)",59.4,68.5,72.4,75,32.4,46.1,44.6,58.5,47.1,60.6,43.9,64,69.9,73.7,72.1,70.1,50.9,82.1,–,58.8
"O=C(O)[C@@H]1[O][Sb](=[O])([O][Sb]2(=[O])[O][C@H]([C@H](O)CO)[C@H](O)[C@H](C(=O)O)[O]2)[O][C@H]([C@H](O)CO)[C@@H]1O (stereo partly drawn) [stibogluconate] + O=C(CCCCCCC(=O)Nc1ccccc1)NO [vorinostat] (first compound 10 µM, partner dose 0.4 µM)",64.6,79,86.8,79.5,81.9,77.4,94.1,80,81,83,36.7,58.5,77.8,68.5,62.9,62.4,62.2,77,94.1,67.9
"O=C(Nc1cc(C(F)(F)F)cc(C(F)(F)F)c1)c1cc(Cl)ccc1O + C[C@@H]1CCN(C(=O)CC#N)C[C@@H]1N(C)c1ncnc2[nH]ccc12 [CP690550] (first compound 0.08 µM, partner dose 5 µM)",95.8,95.4,78.6,79.3,134,84.9,122,96.9,96.2,94.2,94.8,80.2,104,79.2,85.5,84.9,75.6,105,92.7,100
